Experimental data reported in the supplement of paper PMC4967469.
Lines with a small IC50 respond at low doses; where the fit passes the top or lowest dose, that dose stands as a limit. AUC sums up the same curve from the lowest dose to the 256-fold higher top dose; it is 1 without any effect and falls as sensitivity rises. For some assays here: An inferred top dose was derived from the fitted curves, not read from the paper.

Tests used:
Test in all cases: Viability of human cancer cell lines after 72 h of drug (GDSC screen)
Midostaurin = compound: CO[C@@H]1[C@H](N(C)C(=O)c2ccccc2)C[C@H]2O[C@]1(C)n1c3ccccc3c3c4c(c5c6ccccc6n2c5c31)C(=O)NC4 [Midostaurin]; conditions: top dose 0.512 µM; top dose inferred
Description: (§1)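 Human cancer cell lines in 384-well plates, medium with 10% serum, drug for 72 h over a 256-fold dose range (nine 2-fold or five 4-fold steps up to the top dose). Adherent lines were fixed and stained with the nucleic acid dye Syto60, suspension lines read with resazurin; signal relative to control wells, capped at 0 and 100%. One two-parameter sigmoid per drug and line, fitted in a mixed model over all curves with the slope shared within a line.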

Mitomycin C = compound: CO[C@@]12[C@H](COC(N)=O)C3=C(C(=O)C(C)=C(N)C3=O)N1C[C@@H]1N[C@@H]12 [Mitomycin C]; conditions: top dose 16 µM
Description: as §1

Roscovitine = compound: CC[C@H](CO)Nc1nc(NCc2ccccc2)c2ncn(C(C)C)c2n1 [Roscovitine]; conditions: top dose 16 µM; top dose inferred
Description: as §1

NVP-BHG712 = compound: Cc1ccc(C(=O)Nc2cccc(C(F)(F)F)c2)cc1Nc1nc(-c2cccnc2)nc2c1cnn2C [NVP-BHG712]; conditions: top dose 10.24 µM; top dose inferred
Description: as §1

IOX2 = compound: O=C(O)CNC(=O)c1c(O)c2ccccc2n(Cc2ccccc2)c1=O [IOX2]; conditions: top dose 0.1 µM; top dose inferred
Description: as §1

Bosutinib = compound: COc1cc(Nc2c(C#N)cnc3cc(OCCCN4CCN(C)CC4)c(OC)cc23)c(Cl)cc1Cl [Bosutinib]; conditions: top dose 2 µM
Description: as §1

| Cell Line | AUC (Midostaurin) | IC50 (Midostaurin) | AUC (Mitomycin C) | IC50 (Mitomycin C) | AUC (Roscovitine) | IC50 (Roscovitine) | AUC (NVP-BHG712) | IC50 (NVP-BHG712) | AUC (IOX2) | IC50 (IOX2) | AUC (Bosutinib) | IC50 (Bosutinib) |
| --- | --- | --- | --- | --- | --- | --- | --- | --- | --- | --- | --- | --- |
| MDST8 (large intestine, adherent) | 0.966 | > 512 nM | 0.627 | 2240 nM | 0.956 | > 16000 nM | 0.784 | 4310 nM | 0.977 | > 100 nM | 0.885 | > 2000 nM |
| SW962 (urogenital system, adherent) | 0.951 | > 512 nM | 0.239 | 143 nM | 0.94 | > 16000 nM | 0.955 | > 10200 nM | 0.966 | > 100 nM | 0.961 | > 2000 nM |
| SBC-1 (small cell lung carcinoma, suspension) | 0.987 | > 512 nM | 0.383 | 483 nM | 0.983 | > 16000 nM | 0.988 | > 10200 nM | 0.988 | > 100 nM | 0.979 | > 2000 nM |
| NKM-1 (acute myeloid leukaemia, suspension) | 0.534 | 39.7 nM | 0.073 | < 62.5 nM | 0.91 | > 16000 nM | 0.433 | 418 nM | 0.982 | > 100 nM | 0.885 | > 2000 nM |
| EB-3 (Burkitt lymphoma, suspension) | 0.956 | > 512 nM | 0.674 | 3330 nM | 0.896 | > 16000 nM | 0.826 | 7620 nM | 0.979 | > 100 nM | 0.984 | > 2000 nM |
| Farage (B-cell lymphoma, suspension) | 0.962 | > 512 nM | 0.267 | 252 nM | 0.938 | > 16000 nM | 0.323 | 228 nM | 0.969 | > 100 nM | 0.772 | 639 nM |
| JVM-2 (lymphoid neoplasm, suspension) | 0.963 | > 512 nM | 0.378 | 427 nM | 0.954 | > 16000 nM | 0.891 | > 10200 nM | 0.958 | > 100 nM | 0.825 | 1580 nM |
| LS-123 (large intestine, adherent) | 0.911 | > 512 nM | 0.559 | 1530 nM | 0.945 | > 16000 nM | 0.956 | > 10200 nM | 0.975 | > 100 nM | 0.982 | > 2000 nM |
| NCI-H1155 (large cell lung carcinoma, suspension) | 0.993 | > 512 nM | 0.401 | 563 nM | 0.972 | > 16000 nM | 0.961 | > 10200 nM | 0.993 | > 100 nM | 0.993 | > 2000 nM |
| KINGS-1 (glioma, adherent) | 0.873 | > 512 nM | 0.806 | 12100 nM | 0.974 | > 16000 nM | 0.951 | > 10200 nM | 0.939 | > 100 nM | 0.953 | > 2000 nM |
| HC-1 (hairy cell leukaemia, suspension) | 0.922 | > 512 nM | 0.222 | 161 nM | 0.916 | > 16000 nM | 0.787 | 4260 nM | 0.984 | > 100 nM | 0.969 | > 2000 nM |
| MRK-nu-1 (breast, suspension) | 0.871 | 414 nM | 0.194 | 136 nM | 0.81 | 7590 nM | 0.899 | > 10200 nM | 0.989 | > 100 nM | 0.989 | > 2000 nM |
| JVM-3 (lymphoid neoplasm, suspension) | 0.985 | > 512 nM | 0.652 |  | 0.987 | > 16000 nM | 0.887 | > 10200 nM | 0.982 | > 100 nM | 0.752 | 673 nM |
| ES-2 (ovary, adherent) | 0.991 | > 512 nM | 0.518 | 1110 nM | 0.953 | > 16000 nM | 0.871 | 7670 nM | 0.988 | > 100 nM | 0.719 | 476 nM |
| TE-6 (oesophagus, adherent) | 0.939 | > 512 nM | 0.478 | 863 nM | 0.903 | > 16000 nM | 0.925 | > 10200 nM | 0.984 | > 100 nM | 0.984 | > 2000 nM |
| MPP-89 (mesothelioma, adherent) | 0.84 | > 512 nM | 0.482 | 878 nM | 0.924 | > 16000 nM | 0.948 | > 10200 nM | 0.977 | > 100 nM | 0.967 | > 2000 nM |
| OCI-M1 (acute myeloid leukaemia, suspension) | 0.984 | > 512 nM | 0.448 | 746 nM | 0.988 | > 16000 nM | 0.889 | 6900 nM | 0.994 | > 100 nM | 0.992 | > 2000 nM |
| MEG-01 (chronic myeloid leukaemia, suspension) | 0.908 | > 512 nM | 0.456 | 764 nM | 0.842 | 10200 nM | 0.079 | < 40 nM | 0.984 | > 100 nM | 0.548 | 167 nM |
| RH-1 (rhabdomyosarcoma, adherent) | 0.923 | > 512 nM | 0.171 | 128 nM | 0.974 | > 16000 nM | 0.871 | 7010 nM | 0.983 | > 100 nM | 0.961 | > 2000 nM |
